Results: article PMC4336329 (PLoS ONE, 2015)
Screen size: about 310,000 compounds; about 2,200 (0.71%) showed an effect of 50% or more. The effect is printed as a negative number. The list shows a part of the results.

The compounds below were run against human ether-à-go-go-related gene (hERG) potassium channel (human, UniProt Q12809) (assay: primary screen, population patch clamp on CHO cells stably expressing hERG).
human ether-à-go-go-related gene (hERG) potassium channel, sequence (Q12809 whole entry, looked up): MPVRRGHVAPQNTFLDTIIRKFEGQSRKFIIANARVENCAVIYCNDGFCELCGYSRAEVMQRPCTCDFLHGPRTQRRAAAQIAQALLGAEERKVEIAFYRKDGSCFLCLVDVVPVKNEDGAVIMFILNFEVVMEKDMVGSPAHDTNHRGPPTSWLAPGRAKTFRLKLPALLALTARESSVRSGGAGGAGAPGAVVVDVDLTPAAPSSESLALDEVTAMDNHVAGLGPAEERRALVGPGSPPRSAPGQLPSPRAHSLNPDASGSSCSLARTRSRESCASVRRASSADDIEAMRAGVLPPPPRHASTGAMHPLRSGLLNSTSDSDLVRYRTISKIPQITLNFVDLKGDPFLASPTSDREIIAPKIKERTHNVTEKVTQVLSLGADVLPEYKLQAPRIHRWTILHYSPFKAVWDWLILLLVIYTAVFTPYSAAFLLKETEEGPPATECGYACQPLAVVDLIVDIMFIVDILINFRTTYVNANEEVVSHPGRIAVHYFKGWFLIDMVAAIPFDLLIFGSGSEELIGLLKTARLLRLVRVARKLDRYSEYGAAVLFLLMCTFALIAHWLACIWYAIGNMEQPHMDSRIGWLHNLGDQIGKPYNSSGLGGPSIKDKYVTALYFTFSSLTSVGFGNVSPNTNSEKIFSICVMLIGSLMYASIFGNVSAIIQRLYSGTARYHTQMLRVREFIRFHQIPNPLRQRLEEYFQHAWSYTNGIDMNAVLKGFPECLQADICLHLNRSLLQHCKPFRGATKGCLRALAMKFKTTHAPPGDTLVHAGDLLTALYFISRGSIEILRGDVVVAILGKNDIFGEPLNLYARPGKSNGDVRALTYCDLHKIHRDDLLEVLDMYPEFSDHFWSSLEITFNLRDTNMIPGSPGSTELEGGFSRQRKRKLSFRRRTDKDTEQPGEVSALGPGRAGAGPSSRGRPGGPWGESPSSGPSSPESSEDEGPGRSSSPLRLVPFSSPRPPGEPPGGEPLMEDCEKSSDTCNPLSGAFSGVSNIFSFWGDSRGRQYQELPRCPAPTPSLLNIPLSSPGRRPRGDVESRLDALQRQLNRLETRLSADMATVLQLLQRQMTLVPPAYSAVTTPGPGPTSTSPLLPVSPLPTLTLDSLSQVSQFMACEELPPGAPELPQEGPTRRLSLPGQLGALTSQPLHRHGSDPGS

Compound	hERG current change (%, negative = inhibition) at 1uM
Cc1ccc(NC(=O)C(=O)NCc2ccc(/C=C(/C#N)C(=O)NCc3cccnc3)o2)cc1C	5.03%
O=C(O)c1cnn2c1C(=O)N(Cc1cccs1)CC2	14.9%
Cc1cccc2sc(NC(=O)CSc3nnnn3C)nc12	10.6%
CCCNC(=S)NC1CC2CCCC(C1)N2Cc1ccc(F)cc1 (centres unmarked)	-14.4%
Cc1ccc(C(=O)OC2CCCN(C)C2)cc1.Cl (centres unmarked)	8.13%
Cc1c(CCOC(=O)c2cc([N+](=O)[O-])cc([N+](=O)[O-])c2)sc[n+]1CCCCS(=O)(=O)[O-]	10.2%
CC1(C)C(=O)Nc2ccccc2N1C(=O)CSc1ncccn1	-16.1%
Cc1ccc(S(=O)(=O)NC2CCCCCCC2)cc1	16.5%
CC1(C)CC(=O)CC(=Nc2ccc3[nH]c(=O)[nH]c3c2)C1	6.17%
COCCn1nnnc1C(c1cccs1)N1CCCC(C)C1.Cl (centres unmarked)	4.83%
Cc1cc(C)c(C)c(S(=O)(=O)NCCN2CCOCC2)c1C	-2.4%
COc1ccc(NC(=O)C/C(C)=N/NC(=O)c2cnccn2)cc1	10.1%
COc1ccc(CCN2CCCC(CN(C)Cc3cc(Cl)c(O)c(OC)c3)C2)cc1 (centres unmarked)	4.6%
COc1ccc(OC)c(NS(=O)(=O)c2cc(OC)ccc2OC)c1	7.83%
C/C(CC(=O)Nc1cc(C)ccn1)=N\NC(=O)c1ccncc1	12.1%
CCC(Sc1ccc2nnc(-c3ccc(F)cc3)n2n1)C(=O)OC (centres unmarked)	-29.2%
COc1ccc(OCc2cc(C(=O)N(C)Cc3cnccn3)no2)c(Cl)c1	9.12%
COc1ccc(CCNC2=C(Cl)C(=O)N(Cc3ccccc3)C2=O)cc1OC	7.63%
C=CCNc1nc2ccccc2nc1NS(=O)(=O)c1cccc(C)c1	18.7%
CC(=O)CC(=O)NC1C2CC3CC(C2)CC1C3 (centres unmarked)	13.3%
COc1ccccc1NC(=O)c1ccc(NC(=O)COC(=O)C(C)C)cc1	13.2%
C/C(=N\OC(=O)Nc1ccc(Cl)cc1)c1ccc(F)c(F)c1	6.25%
CCN(CC)C1CCCCC1NS(=O)(=O)c1ccc(Cl)cc1 (centres unmarked)	6.21%
O=C(NCCCN1CCCCC1)c1ccc(CS(=O)c2ccc(Cl)cc2)o1 (centres unmarked)	2.37%
COc1cc(C(=O)Nc2ccc(C(C)=O)cc2)c(Br)c(OC)c1OC	11.6%
COCc1nnc(NC(=O)c2ccc3c(c2)OCO3)s1	13.6%
